Results on 54 sequences are retold here after publication PMC7819943, “Rice protein-binding microarrays: a tool to detect cis-acting elements near promoter regions in rice”.

The other results are listed elsewhere or left out.

For this experiment, the target named is T1, OsWOX13 (Oryza sativa, UniProt Q5QMM3 1-267).
T1 sequence: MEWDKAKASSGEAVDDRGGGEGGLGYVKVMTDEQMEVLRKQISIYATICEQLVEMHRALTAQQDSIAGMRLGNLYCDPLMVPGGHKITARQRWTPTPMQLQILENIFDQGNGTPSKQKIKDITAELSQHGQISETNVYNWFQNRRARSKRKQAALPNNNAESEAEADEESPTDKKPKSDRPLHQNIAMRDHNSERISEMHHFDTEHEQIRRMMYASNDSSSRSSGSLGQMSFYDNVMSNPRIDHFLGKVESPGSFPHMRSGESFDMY
Description: protein-binding microarray (RPBM); PBS, 2% BSA, 51.3 ng/ul salmon testes DNA, 50 uM zinc acetate, 200 nM TF, 25 C, 1 h; high values mean tight binding. To be noted: protein: recombinant; tags: N-terminal polyhistidine and DsRed monomer fusion (pET32a); label: CyDye5-dUTP incorporated in the synthesized complementary strand; 3' TTTTT single-stranded linker to array surface; dsDNA, one strand shown. A digest of the protocol:
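An Axon 4000B scanner gave the binding signal as per-feature fluorescence intensity in arbitrary units. This followed washing of a custom Agilent array that had been incubated for 1 h at 25 °C with 200 nM protein in PBS, 2% BSA, salmon testes DNA and 50 µM zinc acetate. The proteins were transcription factors fused at the N-terminus to polyhistidine and DsRed, expressed in E. coli BL21-CodonPlus and purified on Ni–NTA.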
With “TTGGTTCAGATTGATTTGCTGCAAGTGCAAACCTGTTCTTCGGAGTCACCTAGTGCAG”, the binding signal was 36100 fluorescence intensity (a.u.).

Turning to “CTGCTTTAATTAGTTGAGATGAACGTAGAGAATGGATCCTCGGAGTCACCTAGTGCAG”, the binding signal is 9150 fluorescence intensity (a.u.).

For the sequence “AACACTGGTGATTTGATTAGGATTTGCATGCATCCCTGTACGGAGTCACCTAGTGCAG”, the binding signal is 28900 fluorescence intensity (a.u.).

As for “CACTAGTGATTAGCGCCACACGCACGAACTCCATCCACACCGGAGTCACCTAGTGCAG”, the binding signal was 18000 fluorescence intensity (a.u.).

As for “ACTGATTTGTTTGAGTCAAACCTATTGTTCATATATGCCACGGAGTCACCTAGTGCAG”, the binding signal is 40500 fluorescence intensity (a.u.).

For “CATGCTAATTACATCTTAGCATATACACATTCTCCCATTGCGGAGTCACCTAGTGCAG”, the binding signal is 11700 fluorescence intensity (a.u.).

On to “ATTAGTTGCTGATTAACAGCCAGTGCCTGCTAAATATAGCCGGAGTCACCTAGTGCAG”, for which the binding signal was 4220 fluorescence intensity (a.u.).

“CGCACAAAATTATGTGATTGGGGTGCGACATAGGGAATCACGGAGTCACCTAGTGCAG”: the binding signal was 16600 fluorescence intensity (a.u.).

Take “CCAAAATTCATGCACAATTGACAATTCCTCACGTTTCGAACGGAGTCACCTAGTGCAG”: the binding signal was 7460 fluorescence intensity (a.u.).

Regarding “AGTGACCCCAGATTGGCATTCATCGACACGAACGAACAGTCGGAGTCACCTAGTGCAG”, the binding signal was 8910 fluorescence intensity (a.u.).

On to “AAGCATGTGATTAGCAAAAGACGCCGTACTCTCTCTCTCACGGAGTCACCTAGTGCAG”, for which the binding signal is 16700 fluorescence intensity (a.u.).

Regarding “GTTCTGATTTGTTTCCTTAACAATTGCCGATCGATTTACACGGAGTCACCTAGTGCAG”, the binding signal is 13300 fluorescence intensity (a.u.).

For the sequence “TTTTAAATTTAAAATATAGATTAATATAATTTTCCAAACTCGGAGTCACCTAGTGCAG”, the binding signal was 27000 fluorescence intensity (a.u.).

Regarding “GCTGAATTACGACCGCTAGATTGGGTCCAACAGGCCCATCCGGAGTCACCTAGTGCAG”, the binding signal was 8130 fluorescence intensity (a.u.).

Take “ATAATTACTAGCGGGCACTAATTATATACAAGGTATTGATCGGAGTCACCTAGTGCAG”: the binding signal was 6250 fluorescence intensity (a.u.).

In the case of “CATCATCATCATCAATGCAATCACTTTCGGCGGCTACTCCCGGAGTCACCTAGTGCAG”, the binding signal is 6050 fluorescence intensity (a.u.).

Take “CCTTGATGTCTTGATAGCCCATTGGTATCCATTCTTCTGTCGGAGTCACCTAGTGCAG”: the binding signal was 3670 fluorescence intensity (a.u.).

With “AACTTTGACTGCTGCTTAGCCCAAGTCCAAGTCTTTCTTCCGGAGTCACCTAGTGCAG”, the binding signal was 3640 fluorescence intensity (a.u.).

With “AGATAAATGTATATTCAAATTTATAGCTAACATTGGTTATCGGAGTCACCTAGTGCAG”, the binding signal is 3970 fluorescence intensity (a.u.).

As to “TCAATAATTGACGATATGCTAACATGCTATATCAGTTATTCGGAGTCACCTAGTGCAG”, the binding signal is 37400 fluorescence intensity (a.u.).

With “ATTGAATTGACATGTAACCTTATCCTATCAAAACTTACGGCGGAGTCACCTAGTGCAG”, the binding signal was 32500 fluorescence intensity (a.u.).

On to “AACAAATCAAATCCTAATCATCCATCCCATCCAAATCTACCGGAGTCACCTAGTGCAG”, for which the binding signal is 6490 fluorescence intensity (a.u.).

For the sequence “GGACGTGATAGATAGTGCGTTTGGCTTGTCTAGCTGTTTGCGGAGTCACCTAGTGCAG”, the binding signal was 27100 fluorescence intensity (a.u.).

In the case of “CTTGATTATATGCCTTACAAGTAGGGTGTTAGACTTGTCTCGGAGTCACCTAGTGCAG”, the binding signal was 19600 fluorescence intensity (a.u.).

As to “TTCATGAGAATTAATTTTGATTGGATCAACTCTAAAAGTTCGGAGTCACCTAGTGCAG”, the binding signal was 27200 fluorescence intensity (a.u.).

With “CGTATTCTATAATTGGTGAGGCATATAACAATATTTGTATCGGAGTCACCTAGTGCAG”, the binding signal was 5160 fluorescence intensity (a.u.).

In the case of “CAAAATCTGTCCAAATCAATCCACGCATCGATTGTACTATCGGAGTCACCTAGTGCAG”, the binding signal was 5780 fluorescence intensity (a.u.).

Consider “TCAGGCAATTACTACAACAATAGACAAGCGCACTTTCTGCCGGAGTCACCTAGTGCAG”, for which the binding signal is 5420 fluorescence intensity (a.u.).

Turning to “TCATATTGATGTTAATGAATCTGGATAGATATATATGTCTCGGAGTCACCTAGTGCAG”, the binding signal was 5290 fluorescence intensity (a.u.).

Turning to “GTGACTTTTGTTATAATAGATGGATGGGTTGTCACTGTAGCGGAGTCACCTAGTGCAG”, the binding signal is 4620 fluorescence intensity (a.u.).

With “GCCTAATTAATCCATCATTAGCAAATGTTTACTGTAGCATCGGAGTCACCTAGTGCAG”, the binding signal was 50500 fluorescence intensity (a.u.).

“ACTAAATTGGGTTGGGGTGCCTCCTCCTTCCTTTCTTTCTCGGAGTCACCTAGTGCAG”: the binding signal is 21000 fluorescence intensity (a.u.).

Regarding “TGTGGTTTTCTAGTTAATTAACAAGCTAGCTATACCTAGCCGGAGTCACCTAGTGCAG”, the binding signal was 7460 fluorescence intensity (a.u.).

“CATACACCTTATGATTAGATAAGTATGTGTCACCAGGAATCGGAGTCACCTAGTGCAG”: the binding signal was 4650 fluorescence intensity (a.u.).

Turning to “AAAAGATTGAATGTGGAAGTTCTATCTCAATCATATGCTTCGGAGTCACCTAGTGCAG”, the binding signal is 39400 fluorescence intensity (a.u.).

Regarding “GAAACTAATTTAGAGTATTAAATATAACTACTTATAAAACCGGAGTCACCTAGTGCAG”, the binding signal was 5570 fluorescence intensity (a.u.).

“CCTGATGGAAGTCTTAAGACATCTGAGGACAACCTTGATGCGGAGTCACCTAGTGCAG”: the binding signal is 13300 fluorescence intensity (a.u.).

Regarding “CTCAGGTTAATTACATCACGCGTTGTTCTATGAAGATACACGGAGTCACCTAGTGCAG”, the binding signal was 10900 fluorescence intensity (a.u.).

Regarding “CATCAATTAGGAACGAGAATGGCCGAGAGAGTTGAATTTGCGGAGTCACCTAGTGCAG”, the binding signal was 18900 fluorescence intensity (a.u.).

As for “ATAATTATTTAAAAGTAATTTGTGGTTAAAGTGAGATGATCGGAGTCACCTAGTGCAG”, the binding signal is 14600 fluorescence intensity (a.u.).

For “GTCTAAATTATCTTTATTTATACATAAATATAATATTAACCGGAGTCACCTAGTGCAG”, the binding signal is 15800 fluorescence intensity (a.u.).

As for “TTTTGATTGTGTCATTGCCTGCAATGACAGGTCAGAAAACCGGAGTCACCTAGTGCAG”, the binding signal was 14000 fluorescence intensity (a.u.).

For the sequence “TAACGACGTGATTAGGGCAGAGAATACGATACAAATTCGTCGGAGTCACCTAGTGCAG”, the binding signal was 15800 fluorescence intensity (a.u.).

In the case of “CCCGATTGACAAGCTGACTCAGCATGGAGGGACCCACATGCGGAGTCACCTAGTGCAG”, the binding signal is 37700 fluorescence intensity (a.u.).

With “GTCCGTAATTGATCATATTTATCATTTAAATTACTCAGTGCGGAGTCACCTAGTGCAG”, the binding signal was 61900 fluorescence intensity (a.u.).

On to “ATTTGTCCAAAACATCAATTGATTTTGTCTGGAGGAAGTACGGAGTCACCTAGTGCAG”, for which the binding signal is 5760 fluorescence intensity (a.u.).

“TGACTAATTTATTATTCCATAAAATTTTCAAATAAGATATCGGAGTCACCTAGTGCAG”: the binding signal was 13200 fluorescence intensity (a.u.).

“TTCCTGTGCTAATTTAACTGCATAAACCATGTAGAGTTGACGGAGTCACCTAGTGCAG”: the binding signal is 6440 fluorescence intensity (a.u.).

Regarding “GACAATATTAATTACTGCTGCTTTCGTCCACACAGTGAAACGGAGTCACCTAGTGCAG”, the binding signal was 6490 fluorescence intensity (a.u.).

Consider “TGATTAGTTAATTAATCAATTTGAGATGGCATGCTGATACCGGAGTCACCTAGTGCAG”, for which the binding signal was 29100 fluorescence intensity (a.u.).

Take “AATAATAATAACAATTATATTTGTTTTAAATAAGACAGAACGGAGTCACCTAGTGCAG”: the binding signal is 4000 fluorescence intensity (a.u.).

Consider “TTTGATAATATAAATAATTAATAACTAACACATATATAAACGGAGTCACCTAGTGCAG”, for which the binding signal is 6390 fluorescence intensity (a.u.).

As for “TGCTAGATTAGCATGCATGATGCATGTAGGAGCACAATATCGGAGTCACCTAGTGCAG”, the binding signal was 5340 fluorescence intensity (a.u.).

“GGCGATTGATTTGCGCGTGGAAGGAAATCGACAATCGAGTCGGAGTCACCTAGTGCAG”: the binding signal was 39500 fluorescence intensity (a.u.).
